Reference: PubChem BioAssay AID1347165 (National Center for Advancing Translational Sciences (NCATS), 2019)
“And” between values parts separate entries of the source, which are not always exact repeats. Identical values can stand only once. In all, about 220,000 compounds went through this assay and about 5,700 (2.6%) were called active. This list was built around the results that the source calls inconclusive (neither active nor inactive); the mix of calls is not that of the screen. The call rests on the fitted dose curve; in most records, active means well fitted inhibition curve with a large enough effect; inconclusive means small, poorly fitted or top-dose-only effect; inactive means no such curve, though single readings can be large or run the other way. Where the call is inconclusive, the potency comes from a doubtful curve fit.

target: Lysine-specific demethylase 5B (Homo sapiens) (UniProt Q9UGL1); test: Primary screen for KDM5B Histone Demethylases FDH-coupled qHTS; details: FDH-coupled NADH fluorescence (FDH is formaldehyde dehydrogenase); activity change, negative = inhibition: at 57.7 µM (top of the series) unless noted; further: nearly all actives have a fitted effect of over 70% in size; on activity change, negative = inhibition: 0% is about no effect
Summary of the method: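 Here, H3K4me3 peptide (12.5 µM in substrate mix) is demethylated by KDM5BΔAP, 200 nM final, after 10 min compound exposure. Formaldehyde product is coupled through FDH (0.25 U/mL in mix) to NADH fluorescence; 30-min ΔRFU feeds dose-response curves.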
Potency means the concentration at half of the fitted maximal effect; tags describe the fitted curve by direction and shape.

Sequence of UniProt Q9UGL1 (Q9UGL1 whole entry, looked up): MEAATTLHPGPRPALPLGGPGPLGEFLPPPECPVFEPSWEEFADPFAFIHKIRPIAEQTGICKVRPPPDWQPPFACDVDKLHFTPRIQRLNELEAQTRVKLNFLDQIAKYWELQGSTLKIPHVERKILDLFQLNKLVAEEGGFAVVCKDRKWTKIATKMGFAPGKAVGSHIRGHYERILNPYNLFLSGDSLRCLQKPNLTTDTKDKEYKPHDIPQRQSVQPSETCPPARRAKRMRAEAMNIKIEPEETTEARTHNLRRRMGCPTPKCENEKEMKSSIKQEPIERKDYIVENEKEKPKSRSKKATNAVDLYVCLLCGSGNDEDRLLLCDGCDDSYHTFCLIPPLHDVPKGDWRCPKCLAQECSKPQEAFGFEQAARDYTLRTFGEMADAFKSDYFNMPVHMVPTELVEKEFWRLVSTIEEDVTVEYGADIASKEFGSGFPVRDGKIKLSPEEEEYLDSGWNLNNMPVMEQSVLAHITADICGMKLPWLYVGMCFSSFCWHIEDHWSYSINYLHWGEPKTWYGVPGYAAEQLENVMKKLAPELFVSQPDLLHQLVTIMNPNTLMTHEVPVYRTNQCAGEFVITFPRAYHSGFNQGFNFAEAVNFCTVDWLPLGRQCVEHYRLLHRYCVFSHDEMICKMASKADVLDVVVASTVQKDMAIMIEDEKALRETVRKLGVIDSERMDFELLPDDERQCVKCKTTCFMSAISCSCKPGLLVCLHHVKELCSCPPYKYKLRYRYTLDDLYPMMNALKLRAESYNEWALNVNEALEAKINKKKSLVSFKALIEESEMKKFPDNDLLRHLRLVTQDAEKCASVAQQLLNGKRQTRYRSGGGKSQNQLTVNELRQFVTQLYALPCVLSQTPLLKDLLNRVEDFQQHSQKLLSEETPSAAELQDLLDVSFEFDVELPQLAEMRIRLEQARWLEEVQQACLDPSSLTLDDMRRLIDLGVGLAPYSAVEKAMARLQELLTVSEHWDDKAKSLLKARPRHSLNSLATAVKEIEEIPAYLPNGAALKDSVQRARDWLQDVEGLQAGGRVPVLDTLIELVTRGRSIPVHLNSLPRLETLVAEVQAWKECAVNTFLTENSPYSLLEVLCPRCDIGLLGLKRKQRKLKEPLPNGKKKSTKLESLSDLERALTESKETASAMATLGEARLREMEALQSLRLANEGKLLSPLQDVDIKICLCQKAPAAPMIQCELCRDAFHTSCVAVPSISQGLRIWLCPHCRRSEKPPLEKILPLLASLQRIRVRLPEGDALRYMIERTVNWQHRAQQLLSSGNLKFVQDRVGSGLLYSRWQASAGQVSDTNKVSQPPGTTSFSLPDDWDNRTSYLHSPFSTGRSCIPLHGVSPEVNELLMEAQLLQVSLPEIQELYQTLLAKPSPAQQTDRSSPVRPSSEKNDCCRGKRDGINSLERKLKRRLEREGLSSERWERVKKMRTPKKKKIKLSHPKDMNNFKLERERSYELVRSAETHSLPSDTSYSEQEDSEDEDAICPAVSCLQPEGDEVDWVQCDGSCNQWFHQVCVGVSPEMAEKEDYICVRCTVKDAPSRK

Row | SMILES | activity change, negative = inhibition | Potency
1 | CC(C)CC(=O)N1CCC(c2nc(C3CCOCC3)no2)CC1 | inactive: 9.28% | 
2 | CCN(CC)c1ncccc1CNC(=O)c1ccc(C)s1 | inactive: 12% | 
3 | O=C1NCCCCCCN(S(=O)(=O)c2cccs2)[C@H]2CCC[C@@H]12 | inactive: -21.2% | 
4 | Cc1ccc(S(=O)(=O)Nc2cc(C(N)=O)cc(F)c2C)cc1Cl |  | inconclusive: 28.2 µM [inhibitor, single point]
5 | COCCNC(=O)C(C)N1C(=O)COc2ccc(C(=O)COc3ccc(C)c(C)c3)cc21 (stereo unspecified) | inactive: -11% | 
6 | Nc1cc(F)ccc1C(=O)OCc1cccc(Cl)c1 |  | inconclusive: 39.8 µM [inhibitor, single point]
7 | O=C(Cc1cccc(F)c1)N1CCC(Oc2ccccc2-c2nc(C3CC3)no2)C1 (stereo unspecified) |  | inconclusive: 31.6 µM [inhibitor, partial curve, poor fit]
8 | Cc1sc(N)nc1-c1c(C)n(C)c2ccccc12 |  | inconclusive: 31.6 µM [inhibitor, partial curve, poor fit]
9 | Cc1ccc(N(C)C(=O)C2CCCN2S(=O)(=O)c2ccc3c(c2)n(C)c(=O)c(=O)n3C)cc1 (stereo unspecified) |  | inconclusive: 35.5 µM [inhibitor, partial curve, poor fit]
10 | Cc1ccsc1CN(C)C(=O)C1CCCN(C2CCN(C(=O)C3CC3)CC2)C1 (stereo unspecified) |  | inconclusive: 20 µM [inhibitor, partial curve]
11 | COc1ccc(-c2nc3nc(C)cc(Nc4cccc(C(F)(F)F)c4)n3n2)cc1 |  | inconclusive: 35.5 µM [inhibitor, partial curve, poor fit]
12 | COc1ccc(C(NC(=O)CSc2ccc(Br)cc2)c2nccn2C)cc1 (stereo unspecified) | inactive: 10.8% | 
13 | COc1ccc(C(=O)Nc2nnc(C3=COCCO3)o2)cc1 |  | inconclusive: 22.4 µM [inhibitor, partial curve, poor fit]
14 | Cn1cc(CN2C[C@@H](CO)[C@H](C(=O)NC3CC3)C2)cn1 | inactive: -2.64% | 
15 | CC(=O)Nc1c(C)noc1/C=C\c1ccc(C)c(S(=O)(=O)Nc2ccc(C(C)C)cc2)c1 |  | inconclusive: 25.1 µM [inhibitor, partial curve, poor fit]
16 | COc1ccc(CN2C[C@H]3CN(Cc4ccc(OC(F)(F)F)cc4)CCN3C2=O)cc1 | inactive: 8.14% | 
17 | C/C(N)=C(/C#N)C(=O)CSc1nc(-c2ccccc2)c(-c2ccccc2)o1 |  | inconclusive: 25.1 µM [inhibitor, single point]
18 | COc1ccccc1C(=O)N(Cc1ccc(C(C)C)cc1)C1CCS(=O)(=O)C1 (stereo unspecified) | inactive: 9.96% | 
19 | COc1ccc(CN2CC(C(=O)NCc3ccncc3)C3(CCOCC3)C2)cc1 (stereo unspecified) |  | inconclusive: 39.8 µM [inhibitor, single point]
20 | CC(CCc1ccccc1)NC(=O)c1ccc2c(Cl)c3c(nc2c1)CCC3 (stereo unspecified) |  | inconclusive: 39.8 µM [inhibitor, single point]
21 | Cc1ccc(NC(=O)c2cnc(N3CCCCC3)c3ccccc23)cc1Cl |  | inconclusive: 35.5 µM [inhibitor, partial curve, poor fit] and inconclusive: 31.6 µM [inhibitor, partial curve, poor fit]
22 | c1cc2nc(C3CCCN3)[nH]c2cn1 (stereo unspecified) |  | inconclusive: 141 µM [inhibitor, partial curve, poor fit] and inconclusive: 39.8 µM [inhibitor, partial curve, poor fit]

Row | SMILES | activity change, negative = inhibition | Potency
23 | COc1ccc(-c2nc3cnccn3c2NCCC(=O)O)cc1 |  | active: 28.2 µM
24 | O=C(Oc1ccccc1Cl)c1cc(-c2ccc3c(c2)OCCO3)on1 |  | inconclusive: 28.2 µM [inhibitor, partial curve, poor fit]
25 | CCCC(=O)C1=C(c2ccc(C)cc2)N(C(=O)CCC)n2cnnc2S1 |  | inconclusive: 12.6 µM [inhibitor, partial curve, poor fit]
26 | O=C(/C=C/c1ccco1)c1ccccc1 |  | inconclusive: 14.1 µM [inhibitor, partial curve, poor fit]
27 | COc1ccc(Nc2oc(-c3cccc(C)c3)nc2C#N)cc1 |  | inconclusive: 39.8 µM [inhibitor, single point]
28 | COc1cc(N2C[C@H]3OC(=O)N(Cc4ccccc4OC)[C@H]3C2)ncn1 | inactive: 24.4% | 
29 | [O-]/[N+](=C\c1ccco1)c1ccccc1 |  | inconclusive: 20 µM [inhibitor, single point]
30 | CC(=O)c1c(C)[nH]c(-c2csc(CC(=O)Nc3cccc(C)c3)n2)c1C | inactive: 4.67% | 
31 | COCCCNC(=O)c1cc(-c2ccc(C)c(C)c2)nc2ccccc12 | inactive: 965% | 
32 | O=C(NCc1coc(-c2cccs2)n1)c1ccc(Cl)cc1Cl |  | inconclusive: 39.8 µM [inhibitor, single point]
33 | COCCCN1CCc2c(n(Cc3ccccc3)n(-c3ccccc3)c2=O)C1 |  | inconclusive: 35.5 µM [inhibitor, single point]
34 | CCOc1ccc(C(=O)Nc2ccc(-c3nc4cc(C)ccc4o3)cc2)cc1 | inconclusive: -33.2% [inhibitor] | 
35 | c1cc(Cn2cncn2)cc(-n2ccnc2-c2cc3n(n2)CCCNC3)c1 |  | inconclusive: 1.58 µM [inhibitor, full curve]
36 | O=C(CCCCn1c(=O)c2ccccc2n(CC(=O)Nc2ccccc2)c1=O)NCc1ccccc1Cl | inconclusive: -32.6% [inhibitor] | 
37 | Cc1c(C)n(Cc2ccccc2)c2ccc(C(=O)NCc3ccc(OC(C)C)cc3)cc12 |  | inconclusive: 25.1 µM [inhibitor, partial curve, poor fit]
38 | Cc1ccccc1-c1cnc2[nH]cc(CC(=O)NCc3cccnc3)c2c1 |  | inconclusive: 35.5 µM [inhibitor, single point]
39 | Cc1ccc(-c2noc([C@@H]3CCCN3C(=O)Cc3cccc(C)c3)n2)cc1 | inactive: -17% | 
40 | O=C1NCCCCCCN(C(=O)COc2ccccc2)[C@H]2CCC[C@@H]12 | inactive: 14.5% | 
41 | O=C(OC1CCOC1=O)c1ccccc1SC1CCOC1=O (stereo unspecified) | inactive: -15.3% | 
42 | O=C(O)Cn1nc(-c2ccccc2)c2ccccc2c1=O | inactive: -7.31% | 
43 | COCCc1noc([C@@H]2CN(Cc3ccc4c(c3)CCO4)C[C@H]2CO)n1 | inactive: 11.7% | 
44 | COCCN1C(=O)c2ccccc2C(C(=O)NCc2ccccc2Cl)C12CCCC2 (stereo unspecified) |  | inconclusive: 28.2 µM [inhibitor, partial curve, poor fit]

Row | SMILES | activity change, negative = inhibition | Potency
45 | CN1CCN(c2ccc(-c3cn(C)c(=O)n4cc(CNc5ccccc5)nc34)cn2)CC1 |  | active: 28.2 µM
46 | COc1cccc(C(=O)N[C@H]2[C@H](O)[C@H](O)C[C@@H]2c2cccnc2)c1 | inactive: -12.9% [at 86.2 µM] | 
47 | CCCCCn1c(CCCNC(=O)c2cccc(C)c2)nc2ccccc21 |  | inconclusive: 39.8 µM [inhibitor, single point]
48 | Cc1ccc(S(=O)(=O)N2CCN(c3nc4ccccc4nc3-n3nc(C)cc3C)CC2)cc1 |  | inconclusive: 39.8 µM [inhibitor, single point]
49 | CCn1cc(CN2CCC(N3C(=O)C4(CCCCC4)C3c3ccccc3)CC2)cn1 (stereo unspecified) | inactive: -14.5% | 
50 | CN(C)CCNC(=O)c1ccc(-c2nnc3ccc(NC(=O)C4CCC4)cn23)cc1 |  | inconclusive: 39.8 µM [inhibitor, partial curve, poor fit]
51 | CCCOc1ccc(-c2nc(C#N)c(NCc3ccccc3Cl)o2)cc1 |  | inconclusive: 25.1 µM [inhibitor, single point]
52 | COc1ccc(-c2nnc3ccc(N4CCN(C(C)=O)CC4)nn23)nc1 |  | inconclusive: 35.5 µM [inhibitor, partial curve, poor fit]
53 | COc1ccc2oc(-c3ccc(NC(=O)CC45CC6CC(CC(C6)C4)C5)cc3)nc2c1 |  | inconclusive: 11.2 µM [inhibitor, partial curve, poor fit]
54 | c1cn(CCc2noc(C3CCCO3)n2)c(-c2nc3c(s2)CCCC3)n1 (stereo unspecified) |  | active: 31.6 µM
55 | CCC(C)/C(C)=N/Nc1nc2ccccc2[nH]1 (stereo unspecified) |  | inconclusive: 31.6 µM [inhibitor, single point]
56 | CCCc1c(C(=O)Nc2ccc(F)cc2F)cnn1-c1ccccc1 |  | inconclusive: 28.2 µM [inhibitor, single point]
57 | CC(C)c1noc(-c2nc(-c3ccc4c(c3)OCO4)no2)n1 |  | inconclusive: 35.5 µM [inhibitor, single point]
58 | O=C(NCc1csc(-c2cccs2)n1)Nc1ccc(C(F)(F)F)cc1 |  | inconclusive: 28.2 µM [inhibitor, partial curve, poor fit]
59 | O=C1Cc2cc(-c3csc(Nc4ccccc4F)n3)ccc2N1 |  | inconclusive: 28.2 µM [inhibitor, partial curve, poor fit]
60 | CCN(CC)c1ccc(CNC(=O)c2ccc3c(c2)n(C)c(=O)c2ccnn23)cc1 |  | inconclusive: 31.6 µM [inhibitor, single point]
61 | COc1ccc(CN(C(=O)c2cc(Cl)cc(Cl)c2)C2CC2)c(OC)c1 | inactive: -8.25% | 
62 | Cc1ccc(NC(=O)Nc2cn(CC(C)C)c(=O)c3ccccc23)c(C)c1 |  | inconclusive: 25.1 µM [inhibitor, partial curve, poor fit]
63 | COCCN1CC(CO)C2(CCN(C(=O)c3cc(Cl)ccc3OC)CC2)C1 (stereo unspecified) |  | inconclusive: 17.8 µM [inhibitor, partial curve, poor fit]
64 | CCOc1ccccc1CNC(=O)c1cc(C)nc2c(C)cccc12 | inactive: -12.3% | 
65 | CCOc1ccccc1CNC(=O)c1ccc2c(c1)sc1nc(-c3ccccc3)cn12 |  | inconclusive: 6.31 µM [inhibitor, partial curve, poor fit]
66 | COc1ccc(CCNC(=O)CSC2=Nc3ccccc3C3=NC(CCC(=O)NCc4ccccc4)C(=O)N23)cc1OC (stereo unspecified) |  | inconclusive: 44.7 µM [inhibitor, single point]
